Source: PubChem BioAssay AID759 (NMMLSC, 2007)
In all, about 190,000 compounds went through this assay and about 270 (0.14%) were called active. The shares of active, inactive and inconclusive entries below differ from those in the screen.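 How the source made its calls: active means GTP binding activity at least 20% away from the 100% baseline, either lowered as inhibitor or raised as activator; inconclusive means flagged as likely green fluorescent, judged across all proteins in the well; inactive means the rest.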

These compounds were tested against GTPase HRas (Homo sapiens) (UniProt P01112) (assay: HRas wt fluorescent GTP binding changes, either direction – biochemical, wildtype, bead-based flow cytometry, multiplex, primary screen (AID 759;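 further: 0% = unlabeled GTP competition control and 100% = no-compound control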)). Conditions: GST-Ras wt beads, Bodipy-FL-GTP binding, at 10 µM, actives lie on both sides.
UniProt P01112, sequence (P01112 whole entry, looked up): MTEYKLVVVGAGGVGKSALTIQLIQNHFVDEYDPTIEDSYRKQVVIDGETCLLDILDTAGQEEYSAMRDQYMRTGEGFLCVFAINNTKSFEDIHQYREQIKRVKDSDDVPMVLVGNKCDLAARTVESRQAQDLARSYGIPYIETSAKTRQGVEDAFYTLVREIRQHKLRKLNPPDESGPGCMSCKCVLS
With `O=S1(=O)N=C(N(CCO)/N=C/c2ccncc2)c2ccccc21` the GTP binding activity was active: 67%. In the case of `CS(=O)(=O)N(CC(=O)NCCSc1ccccn1)c1ccc(F)cc1`, the GTP binding activity is reported as inconclusive: 96%. `O=C(CCc1ccccc1)c1nnc(-c2ccccc2)o1` was tested, and the GTP binding activity was inactive: 95%. In the case of `CCc1ccc2[nH]c(=O)c(CN(Cc3ccc4c(c3)OCO4)C(=O)c3ccco3)cc2c1`, the GTP binding activity is reported as inconclusive: 92%. `Cc1ccc(-c2nc3ccccc3s2)cc1NC(=S)NC(=O)c1cccc2ccccc12` was tested, and the GTP binding activity was inconclusive: 92%. With `O=C(c1n[nH]c(=O)c2ccccc12)N1CCN(C2c3ccccc3-c3ccccc32)CC1` the GTP binding activity was inconclusive: 45%. With `O=C(NC12CC3CC(CC(C3)C1)C2)N1CCN(C(=O)C2CCCO2)CC1` (configuration not stated) the GTP binding activity was inconclusive: 106%. With `Cc1cc(C)nc(NC(=O)c2ccc(COc3ccccc3Cl)cc2)c1` the GTP binding activity was inactive: 95%. For `CCn1cnc2sc(C)c(C)c2c1=O`, the GTP binding activity was inconclusive: 103%. With `COc1ccc(N(CC(=O)N/N=C/c2cc(Br)c(C)o2)S(=O)(=O)c2ccc(NC(C)=O)cc2)cc1` the GTP binding activity was inconclusive: 92%. For `COc1ccccc1NC(=O)c1c(Nc2ccccc2F)sc(C(=O)Nc2cccc(Cl)c2)c1N`, the GTP binding activity was inactive: 100%. In the case of `O=C(COC(=O)c1ccc2c(c1)C(=O)N(c1cccc3ncccc13)C2=O)c1ccc(Cl)cc1`, the GTP binding activity is reported as inactive: 90%. With `CCOC(=O)CN1CCC(c2ccccc2)CC1` the GTP binding activity was inactive: 98%. `Cc1ccc(N/N=C2/CCCNC2=O)cc1` was tested, and the GTP binding activity was inconclusive: 96%. `CCOc1ccc(OCc2cccc(C(=O)N(CC)CC)c2)cc1` was tested, and the GTP binding activity was inactive: 98%. For `COc1cc(/C=C(\C#N)c2[nH]nc(N)c2C#N)cc(OC)c1O`, the GTP binding activity was inconclusive: 91%. In the case of `CN1CCN(CC(=O)N2c3ccccc3C(C)(c3ccccc3)CC2(C)C)CC1` (configuration not stated), the GTP binding activity is reported as inconclusive: 102%. With `CC(C)c1[nH]nc2c1C(Cc1ccccc1)C(C#N)=C(N)O2` (configuration not stated) the GTP binding activity was inconclusive: 96%. `CCOC(=O)Nc1sc(C)c(C)c1C(N)=O` was tested, and the GTP binding activity was inactive: 100%. With `CCN(C(=O)Cc1c(C(=O)O)[nH]c2ccccc12)c1ccc(OC)cc1` the GTP binding activity was inconclusive: 93%. In the case of `CC(C(=O)NC(C)(C)C)N1C(=O)c2cccc3cccc(c23)C1=O` (configuration not stated), the GTP binding activity is reported as inconclusive: 90%. In the case of `CCn1c(=O)c(C(=O)NNS(=O)(=O)c2ccc(Br)cc2)c(O)c2ccccc21`, the GTP binding activity is reported as inconclusive: 88%. In the case of `CCOC(=O)c1sc2nccc(N(C)C)c2c1N=CN(C)C`, the GTP binding activity is reported as inconclusive: 105%. With `Cc1sc2nc3ccc(NCc4ccco4)nn3c(=O)c2c1C` the GTP binding activity was active: 34%. `O=C(O)CCC(=O)N1CCc2cc(S(=O)(=O)N3CCCCC3)ccc21` was tested, and the GTP binding activity was inconclusive: 103%. With `COc1ccc(OC)c(/C=C/C(=O)OCC(=O)Nc2ccc3c(c2)OCCO3)c1` the GTP binding activity was inconclusive: 94%. With `O=c1nc(NCc2ccco2)sc2ncccc12` the GTP binding activity was inconclusive: 95%. In the case of `CN1CCC2(CC1)C1CN(C)CC=C1C(C#N)=C(N)C2(C#N)C#N` (configuration not stated), the GTP binding activity is reported as inconclusive: 96%. For `COc1ccc(/C=C/C(=O)C2C(=O)C=C(C)OC2=O)cc1O` (configuration not stated), the GTP binding activity was inconclusive: 96%. `N#Cc1c(N)nc2c3c(sc(=N)c2c1N)NC(=O)CC3c1ccccc1` (configuration not stated) was tested, and the GTP binding activity was inconclusive: 84%. With `NC(=O)CSc1cn(Cc2ccccc2)c2ccccc12` the GTP binding activity was inactive: 96%. `O=c1c2cc(NC(=S)NC3CC3)ccc2nc2n1CCCCC2` was tested, and the GTP binding activity was inconclusive: 95%. With `C/C(=N/NC(=O)c1ccoc1C)c1cccc(NC(=O)C2CC2)c1` the GTP binding activity was inconclusive: 103%. For `COc1cc(SC#N)ccc1N=Cc1c(C)[nH]n(-c2ccc(Cl)cc2)c1=O`, the GTP binding activity was inactive: 94%. In the case of `N#CCCN1CCN(S(=O)(=O)c2cc(Cl)ccc2Cl)CC1`, the GTP binding activity is reported as inconclusive: 93%. In the case of `NC(=O)c1ccccc1NC(=S)NC(=O)CCc1ccccc1`, the GTP binding activity is reported as inconclusive: 104%. In the case of `CC(C)(C)NC(=O)Cn1cnc2cc([N+](=O)[O-])ccc2c1=O`, the GTP binding activity is reported as inconclusive: 88%. `COc1ccc(S(=O)(=O)N2CCN(CC(=O)Nc3cccc(F)c3)CC2)cc1` was tested, and the GTP binding activity was inconclusive: 110%. In the case of `CCOC(=O)C(/C(C)=N/NC(=O)C1CC1c1ccccc1)C(C)C` (configuration not stated), the GTP binding activity is reported as inactive: 101%. `Cc1[nH]c2ccccc2c1C(=O)NS(=O)(=O)Nc1ccc(Cl)cc1` was tested, and the GTP binding activity was inactive: 94%. `Cc1ccccc1NC(=O)c1ccc(NC(=O)C2CC(=O)OC23CCCCC3)cc1` (configuration not stated) was tested, and the GTP binding activity was inactive: 86%. In the case of `CSc1nnc(C)c(/C=C/Nc2ccc(C)cc2)n1`, the GTP binding activity is reported as inconclusive: 73%. In the case of `Cc1c(C(=O)C(=O)NCc2cccs2)c2ccccc2n1C`, the GTP binding activity is reported as inactive: 98%. With `CCN(CC)C(=O)CSc1nc2ccccc2c(=O)n1-c1cccc(OC)c1` the GTP binding activity was inconclusive: 103%. With `C=CCNc1nc(N)c(C(=C(C#N)C#N)c2ccc(Br)cc2)s1` the GTP binding activity was inconclusive: 90%. In the case of `Cc1ccc(N=C2S/C(=C\c3cn(CC(=O)O)c4ccccc34)C(=O)N2C)cc1`, the GTP binding activity is reported as inconclusive: 92%. With `Cc1ccc(-c2cc(=O)[nH][nH]2)c(C)c1` the GTP binding activity was inconclusive: 104%. For `CC(C)(C)C1=C(C#N)C(c2cccnc2)C(C#N)=C(N)O1` (configuration not stated), the GTP binding activity was inconclusive: 102%. For `O=C(O)C1C2C=CC(C2)C1C(=O)N1CCOCC1` (configuration not stated), the GTP binding activity was active: 43%. For `CN(CCCNC(=O)c1cn(C)c2ccc(S(=O)(=O)N(C)C)cc2c1=O)c1ccccc1`, the GTP binding activity was inconclusive: 104%. With `CCOc1ccc(C2CC(c3c(O)c4ccccc4oc3=O)=NN2c2ccccc2)cc1OC` (configuration not stated) the GTP binding activity was inactive: 98%. `Cc1sc2nc3c4ccccc4c(NCc4ccco4)nn3c(=O)c2c1C` was tested, and the GTP binding activity was active: 76%. `O=C(COc1cccc(Cl)c1)Nc1nc(-c2ccc(S(=O)(=O)N3CCOCC3)cc2)cs1` was tested, and the GTP binding activity was inconclusive: 102%. For `O=C1Nc2ncccc2OC1CCO` (configuration not stated), the GTP binding activity was inactive: 103%. In the case of `COc1ccc(C(=O)CC(Nc2ccc([N+](=O)[O-])cc2)c2ccc(Cl)cc2)cc1` (configuration not stated), the GTP binding activity is reported as inactive: 96%. `Cc1ccc(-c2cc(C(=O)NCc3cccs3)no2)cc1` was tested, and the GTP binding activity was inconclusive: 92%. With `Cc1ccc(C(=O)n2nc(-n3cccc3)c3c(C)cc(C)nc32)cc1` the GTP binding activity was inconclusive: 89%. In the case of `Cc1cccc(NC(=O)c2ccc([N+](=O)[O-])cc2Cl)n1`, the GTP binding activity is reported as inconclusive: 103%. In the case of `O=C(CC12CC3CC(CC(C3)C1)C2)NCc1ccco1`, the GTP binding activity is reported as inactive: 96%. With `Cc1ccc(NC(=O)/C(=C/c2cccc(Br)c2)NC(=O)c2ccco2)cc1` the GTP binding activity was inactive: 98%. For `COc1ccc(S(=O)(=O)NNC(=O)c2cccs2)cc1`, the GTP binding activity was inconclusive: 94%. `CC1(C)CC(O)C(C(O)c2cccc([N+](=O)[O-])c2)C(C)(C)N1` (configuration not stated) was tested, and the GTP binding activity was inconclusive: 105%. In the case of `Cc1ccc(C2(C)NC(=O)N(CCOc3ccccc3)C2=O)cc1` (configuration not stated), the GTP binding activity is reported as inconclusive: 106%. For `Cc1noc2ncnc(N3CCN(c4cccc(Cl)c4)CC3)c12`, the GTP binding activity was inactive: 94%. For `Nc1[nH]n2c(=O)c3c(nc2c1N=Nc1ccccc1)CCCC3`, the GTP binding activity was active: 73%. In the case of `O=C1Cn2c(nc3ccccc32)-c2ccccc2N1`, the GTP binding activity is reported as inconclusive: 102%. For `Cc1cccc2sc(NC(=O)C3CCCN(S(=O)(=O)c4cccc5nonc45)C3)nc12` (configuration not stated), the GTP binding activity was inconclusive: 110%. For `O=C(O)c1cccc(-n2c(-c3cnccn3)n[nH]c2=S)c1`, the GTP binding activity was inactive: 98%. With `COc1cccc(CSc2nc3sc(C)c(C)c3c(=O)n2Cc2ccco2)c1` the GTP binding activity was inconclusive: 101%. With `CCOc1cc(S(=O)(=O)NCc2ccc3c(c2)OCO3)c(C)cc1C` the GTP binding activity was inconclusive: 96%. For `Cc1c(C(=O)N2CCCCC2)sc(NC(=O)C(C)C)c1C#N`, the GTP binding activity was inconclusive: 102%. With `Cc1cc(Cl)nc(-c2ccccc2)n1` the GTP binding activity was inconclusive: 93%. For `COc1nc(Nc2ccc(O)cc2)nc(OC(C(F)(F)F)C(F)(F)F)n1`, the GTP binding activity was inconclusive: 147%. In the case of `CCn1cc(CNC(=S)Nc2cccc(Cl)c2C)cn1`, the GTP binding activity is reported as inactive: 100%. With `Cc1ccc(C)c(N(CC(N)=O)S(C)(=O)=O)c1` the GTP binding activity was active: 74%. For `O=C(NNc1cccc(Cl)n1)c1c(Cl)cccc1Cl`, the GTP binding activity was inconclusive: 109%. For `O=C(CCC(=O)N1CCCC1)Nc1nnc(C(F)(F)F)s1`, the GTP binding activity was inconclusive: 105%. For `Cc1c(N=C2N=C(NC(=O)c3ccc(F)cc3)c3ccccc32)c(=O)n(-c2ccccc2)n1C`, the GTP binding activity was inactive: 97%. `Cc1cccc(NC(=O)CN(C)S(=O)(=O)c2cccs2)c1` was tested, and the GTP binding activity was inconclusive: 94%. For `COc1ccc(OC)c(NC2=NC3(CCCCC3)N=C(N)N2)c1`, the GTP binding activity was inconclusive: 89%. In the case of `COc1cc(/C=N/NC(=O)CN(Cc2ccccc2)S(=O)(=O)c2ccc3c(c2)OCCO3)ccc1O`, the GTP binding activity is reported as inactive: 81%. For `COc1cc(/C=C(/C#N)c2ccc(F)cc2)ccc1Oc1ccc([N+](=O)[O-])cn1`, the GTP binding activity was inconclusive: 104%. In the case of `C#CCOCCOCCOCCNc1nc(N2CCN(C(=O)[C@H](CCCCN)n3cc(C(N)CO)nn3)CC2)nc(N2CCN(C(=O)[C@H](CCC(=O)O)n3cc(C(N)[C@H](C)CC)nn3)CC2)n1` (some centres not stated), the GTP binding activity is reported as inactive: 101%. For `O=C(Nc1nccs1)c1ccc(-c2cccc([N+](=O)[O-])c2)o1`, the GTP binding activity was inactive: 84%. For `Cc1cc2ccccn2c1C(=O)c1cc([N+](=O)[O-])cc([N+](=O)[O-])c1`, the GTP binding activity was active: 45%. In the case of `c1ccc(-c2csc(N3CCOCC3)n2)cc1`, the GTP binding activity is reported as inconclusive: 102%. `CC(=O)C1=C(O)C=C(c2ccco2)CC1c1ccco1` (configuration not stated) was tested, and the GTP binding activity was inactive: 99%. For `O=C(Cn1c(-c2cscn2)nc2ccccc21)Nc1cc(F)ccc1F`, the GTP binding activity was inactive: 106%. For `COc1cccc(N=c2oc3c(C)ncc(CO)c3cc2C(N)=O)c1`, the GTP binding activity was inconclusive: 89%. For `Oc1ccc(/C=N/Nc2nc(N3CCCCCC3)nc(N3CCCCCC3)n2)c(O)c1`, the GTP binding activity was inconclusive: 93%. In the case of `CCC(C)N(C(=O)CSc1nc(-c2ccccc2)cs1)C1CCS(=O)(=O)C1` (configuration not stated), the GTP binding activity is reported as inactive: 99%. In the case of `CCNC(=O)NC(=O)C(C)OC(=O)Cc1coc2cc3c(cc12)CCC3` (configuration not stated), the GTP binding activity is reported as inconclusive: 92%.
